Consider 70 compounds from the supplement of paper PMC4723716.

The structures appear in SMILES notation. ± gives the uncertainty stated by the source. Whole data set: some 9,900 compounds, median “viability index relative to DMSO control” near 1, cut for the lowest 2% near 0.85. This is one part of the list.

The test relates to Plasmodium falciparum NF54 stage V gametocytes. Put plainly: viability index relative to DMSO control (fraction); higher = less gametocyte killing. The settings on record: 2.5 µM, library set: Broad Institute DOS, incubation time: 72 h. In outline: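 P. falciparum NF54 stage V gametocytes in serum-free screening medium (0.75% gametocytemia, 1.25% hematocrit, 10 µl) were incubated with compound at 2.5 µM in 1,536-well plates for 72 hr at 37°C under low oxygen. Then 3 µl of 2.5 µM MitoTracker Red CMXRos plus 0.13% saponin was added for one to two hours. One field per well was imaged, 20–70 µm2 red particles were counted, and the viability index was the count divided by the plate mean of DMSO wells.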
In turn, `C[C@@H]1CN([C@@H](C)CO)C(=O)CCCn2cc(nn2)CO[C@H]1CN(C)C(=O)Nc1ccc2c(c1)OCO2` came in with a viability index of 1.028 ± 0.0018.

In turn, `O=C(Nc1cccc(Cl)c1)N[C@H]1CC[C@@H](CCn2cc(Cc3ccccc3)nn2)O[C@H]1CO` had a viability index of 1.11 ± 0.036.

`CC(C)(C)[S@](=O)N1Cc2cc(C(=O)N[C@@H]3CCN(Cc4ccccc4)C3)nc(-c3cccc(-c4cccnc4)c3)c2[C@@H]1CCO` displayed a viability index of 1.063 ± 0.0066.

On to `CC(C)N(C[C@H]1[C@H](c2ccccc2)[C@@H](CO)N1S(C)(=O)=O)C(=O)CN(C)C`, for which the viability index turned out to be 0.955 ± 0.039.

As to `C[C@H]1CN([C@@H](C)CO)C(=O)CCCn2nncc2CO[C@@H]1CN(C)Cc1cccc2c1OCCCO2`, the viability index amounted to 1.083 ± 0.01.

For the compound `O=S(=O)(c1cccc(F)c1)N1CC[C@H]2[C@H](CO)Nc3ccc(C#Cc4ccccc4F)cc3[C@H]21`, the viability index stood at 1.1 ± 0.012.

Take `C[C@H]1CN([C@@H](C)CO)C(=O)Cc2cc(NC(=O)C3CC3)ccc2O[C@@H]1CN(C)S(=O)(=O)c1cn(C)cn1`: the viability index was determined as 0.936 ± 0.19.

Regarding `CNC[C@H]1OCc2ccccc2-c2ccccc2C(=O)N([C@@H](C)CO)C[C@H]1C`, the viability index turned out to be 0.99 ± 0.12.

`C[C@@H](NC(=O)C[C@@H]1CC[C@@H]2[C@H](COc3ccc(NS(=O)(=O)c4ccc(Cl)cc4)cc3C(=O)N2C)O1)c1ccccc1` returned a viability index of 1.02 ± 0.025.

Regarding `C[C@@H]1CN([C@@H](C)CO)C(=O)CCCn2cc(nn2)CO[C@@H]1CN(C)C(=O)NC1CCCCC1`, the viability index is 1.02 ± 0.025.

As to `CCCNC(=O)C[C@H]1CC[C@H]2[C@@H](COC[C@@H](O)CN2C(=O)Nc2ccc(Cl)c(Cl)c2)O1`, the viability index was 1.16 ± 0.016.

As to `C[C@@H]1CN([C@@H](C)CO)C(=O)c2cccc(NC(=O)Nc3ccc4c(c3)OCO4)c2O[C@@H]1CN(C)S(C)(=O)=O`, the viability index stood at 1.02 ± 0.066.

`CS(=O)(=O)N1CC(=O)N2[C@H](C1)[C@H](c1ccc(C#CCC3CCCC3)cc1)[C@@H]2CO` displayed a viability index of 1.01 ± 0.065.

For `COc1ccc(C[C@H]2CCn3nncc3COC[C@@H](CC(C)C)NC2=O)cc1`, the viability index was determined as 1.11 ± 0.12.

For `CO[C@H]1CN(C)C(=O)c2ccc(NS(=O)(=O)c3ccc(C)cc3)cc2OC[C@H](C)N(C)C[C@H]1C`, the viability index was 0.972 ± 0.056.

Compound `CCS(=O)(=O)Nc1ccc2c(c1)C(=O)N(C)[C@@H]1CC[C@H](CC(=O)NC3CCCCC3)O[C@@H]1CO2` registered a viability index of 0.905 ± 0.12.

The compound `C/C=C/c1ccccc1[C@@H]1[C@@H](C#N)N(c2nc(CC)cs2)[C@H]1CO` displayed a viability index of 1.073 ± 0.0095.

Turning to `CNC[C@H]1Oc2c(NS(=O)(=O)c3ccc(Cl)cc3)cccc2C(=O)N([C@H](C)CO)C[C@@H]1C`, the viability index was 0.947 ± 0.029.

The compound `CO[C@@H]1CN(C)C(=O)c2cc(NC(C)=O)ccc2OC[C@H](C)N(Cc2ccncc2)C[C@@H]1C` showed a viability index of 1.03 ± 0.036.

The compound `CC(C)NC(=O)N1CC[C@H]2[C@@H]1c1cc(C#Cc3ccccc3)ccc1N(C)[C@H]2CO` came in with a viability index of 1.08 ± 0.017.

In turn, `Cc1noc(C)c1NC(=O)Nc1ccc2c(c1)C(=O)N([C@@H](C)CO)C[C@@H](C)[C@H](CN(C)S(=O)(=O)c1ccc(F)cc1)O2` returned a viability index of 0.944 ± 0.2.

As to `C[C@@H]1CCCCO[C@@H](CN(C)C(=O)CCCN(C)C)[C@@H](C)CN([C@@H](C)CO)C(=O)c2cc(NS(=O)(=O)c3ccc(Cl)cc3)ccc2O1`, the viability index was 1.15 ± 0.11.

`CN1C(=O)c2cc(NC(=O)NCc3ccccc3)ccc2OC[C@@H]2O[C@@H](CC(=O)NCC3CCCCC3)CC[C@H]21`: the viability index was 0.988 ± 0.14.

Turning to `CC(C)NC(=O)N1CC2(C1)[C@H](c1ccccc1)[C@H](CO)N2Cc1cncnc1`, the viability index came out at 1.03 ± 0.13.

Consider `CO[C@@H]1CN(C)C(=O)c2ccc(NC(=O)c3ccno3)cc2OC[C@@H](C)N(S(C)(=O)=O)C[C@@H]1C`, for which the viability index turned out to be 1.11 ± 0.088.

The compound `N#C[C@H]1[C@H](c2ccc(C3=CCCCC3)cc2)[C@@H](CO)N1S(=O)(=O)c1ccccc1` yielded a viability index of 1.14 ± 0.022.

Compound `C[C@H](CO)N1C[C@H](C)[C@@H](CN(C)S(=O)(=O)c2ccccc2C#N)OCc2cnnn2CCCC1=O` came in with a viability index of 1.034 ± 0.0085.

On to `CC(=O)N1CC[C@@H]2[C@H]1c1cc(-c3ccccc3)ccc1N[C@@H]2CO`, for which the viability index stood at 1.11 ± 0.075.

`C[C@@H]1CCCCO[C@@H](CN(C)C(=O)CCCN(C)C)[C@H](C)CN([C@@H](C)CO)C(=O)c2cc(NS(=O)(=O)c3ccc(Cl)cc3)ccc2O1` came in with a viability index of 1.1 ± 0.073.

`C[C@H](CO)N1C[C@H](C)[C@@H](CN(C)C(=O)c2cc(Cl)cc(Cl)c2)OCc2ccccc2-c2ccccc2C1=O` showed a viability index of 0.965 ± 0.052.

With `O=C(C[C@H]1CC[C@H](NS(=O)(=O)c2ccc(F)cc2)[C@H](CO)O1)N1CCN(c2ccccc2)CC1`, the viability index came out at 1.15 ± 0.059.

Compound `COCC(=O)N1CC(=O)N2[C@H](C1)[C@H](c1ccc(C#CC3CC3)cc1)[C@@H]2CO` came in with a viability index of 1.032 ± 0.0074.

In turn, `O=C1N[C@@H](c2ccccc2)COCc2cn(nn2)CC[C@H]1Cc1cccc(Cl)c1` gave a viability index of 1.07 ± 0.039.

Compound `O=C1[C@H](Cc2ccc(C(F)(F)F)cc2)CCn2nncc2COC[C@@H]2CCCCN12` came in with a viability index of 1.06 ± 0.06.

Consider `COc1ccc(NC(=O)N(C)C[C@@H]2Oc3c(NS(=O)(=O)c4c(C)noc4C)cccc3C(=O)N([C@H](C)CO)C[C@@H]2C)cc1`, for which the viability index amounted to 0.9833 ± 0.0028.

Compound `COc1cccc(-c2ccc([C@H]3[C@H](C#N)N(C(=O)Cc4ccncc4)[C@H]3CO)cc2)c1` had a viability index of 1.03 ± 0.083.

On to `COc1cccc(S(=O)(=O)Nc2ccc3c(c2)C(=O)N(C)[C@H]2CC[C@H](CC(=O)NCC4CCCCC4)O[C@H]2CO3)c1`, for which the viability index came to 1.04 ± 0.044.

`CCS(=O)(=O)N1C[C@@]2(C1)CN([C@H](CO)c1[nH]c3cc(OC)ccc3c21)S(=O)(=O)c1cn(C)cn1` registered a viability index of 0.897 ± 0.034.

Compound `COc1ccc(S(=O)(=O)N2C[C@H](O)COC[C@@H]3O[C@H](CC(=O)N[C@@H]4CCN(Cc5ccccc5)C4)CC[C@H]32)cc1` registered a viability index of 0.962 ± 0.015.

`CC(=O)N1[C@H](CN(CC(C)C)C(=O)c2ccccn2)[C@H](c2ccccc2)[C@@H]1CO` yielded a viability index of 1.073 ± 0.0089.

The compound `C[C@H]1CN([C@@H](C)CO)C(=O)c2c(c3ccccc3n2C)-c2ccccc2CO[C@@H]1CN(C)C(=O)Nc1ccccc1C(F)(F)F` had a viability index of 1.009 ± 0.0034.

Regarding `Cc1ccc(-c2ccc([C@H]3[C@H]4CNC[C@@H]3N4Cc3ccc(F)cc3)cc2)cc1`, the viability index was 1.05 ± 0.015.

In turn, `Fc1ccccc1-c1ccc([C@H]2[C@@H]3CN(Cc4ccccn4)C[C@H]2N3)cc1` returned a viability index of 0.926 ± 0.11.

`CN1C(=O)c2cc(NC(=O)Nc3ccccc3Cl)ccc2OC[C@@H]2O[C@@H](CC(=O)O)CC[C@@H]21` yielded a viability index of 1.02 ± 0.038.

Take `C[C@H](CO)N1C[C@H](C)[C@@H](CN(C)S(=O)(=O)c2cn(C)cn2)Oc2ncc(C3=CCCCC3)cc2C1=O`: the viability index amounted to 1.04 ± 0.066.

In turn, `CO[C@@H]1CC[C@@H]2CCN(C)C(=O)[C@H](C)N(C)C(=O)c3cccc(C#N)c3OC[C@@H]1O2` yielded a viability index of 1.04 ± 0.069.

In turn, `C[C@H]1CN([C@@H](C)CO)S(=O)(=O)c2ccc(C#CC3(O)CCCC3)cc2O[C@H]1CN(C)C(=O)Nc1cccc(F)c1` displayed a viability index of 1.03 ± 0.064.

In turn, `CCC(=O)Nc1ccc2c(c1)OC[C@H](C)N(Cc1ccccc1)C[C@H](C)[C@H](OC)CN(C)C2=O` came in with a viability index of 1.033 ± 0.0097.

In the case of `C[C@@H]1CN([C@H](C)CO)C(=O)Cc2cc(NS(=O)(=O)c3cccs3)ccc2O[C@@H]1CN(C)CC1CCCCC1`, the viability index was 1.05 ± 0.12.

Compound `COc1ccc2c3c([C@H](CO)N(C[C@]33CN(Cc4nccs4)C3)C(=O)Nc3cccc(F)c3)n(C)c2c1` showed a viability index of 1.03 ± 0.019.

`COc1ccc2c3c([nH]c2c1)[C@@H](CO)N(C[C@]31CCN(CC1)C(=O)Nc1ccccc1)S(C)(=O)=O` registered a viability index of 0.99 ± 0.15.

Compound `O=C(C[C@@H]1CC[C@@H]2[C@H](COC[C@@H](O)CN2C(=O)Nc2cccc(F)c2)O1)NCCCN1CCOCC1` yielded a viability index of 1.12 ± 0.081.

For the compound `O=C(C1CCC1)N1CCCCN2[C@H](CO)[C@@H](c3ccc(-c4ccncc4)cc3)[C@H]2C1`, the viability index is 1.06 ± 0.022.

For the compound `COCC(=O)N1C[C@@]2(C1)CN(Cc1nccs1)[C@@H](CO)c1c2c2ccc(OC)cc2n1C`, the viability index worked out at 1.02 ± 0.022.

For the compound `CN1C(=O)c2cc(NC(=O)Nc3cccc(C#N)c3)ccc2OC[C@H]2O[C@@H](CC(=O)NCc3ccc(Cl)cc3)CC[C@@H]21`, the viability index came to 1.01 ± 0.046.

Consider `COCC(=O)N1[C@@H](C#N)[C@H](c2ccc(C#CCC3CCCC3)cc2)[C@@H]1CO`, for which the viability index is 0.995 ± 0.023.

In the case of `CC(C)CC#Cc1ccc([C@H]2[C@H](CO)N3C(=O)CN(C(=O)Nc4cc(F)ccc4F)C[C@@H]23)cc1`, the viability index was 1.02 ± 0.059.

With `CCN(C[C@H]1N[C@@H](CO)[C@@H]1c1ccccc1)C(=O)c1ccncc1`, the viability index worked out at 0.993 ± 0.049.

Compound `O=C(C[C@H]1C=C[C@@H](NS(=O)(=O)c2ccccc2)[C@H](CO)O1)NCCN1CCCCC1` came in with a viability index of 1.17 ± 0.14.

Turning to `O=C(c1ccccn1)N1CC[C@H]2[C@H](CO)Nc3ccc(C#Cc4cccnc4)cc3[C@H]21`, the viability index worked out at 1.1 ± 0.013.

In the case of `COc1ccc2c3c([C@H](CO)N(C[C@]33CN(C3)C(=O)c3ccccc3F)C(=O)Nc3ccccc3F)n(C)c2c1`, the viability index was found to be 1.03 ± 0.032.

The compound `COCC(=O)N1CC(=O)N2[C@H](CO)[C@@H](c3ccc(-c4ccccc4F)cc3)[C@H]2C1` had a viability index of 0.948 ± 0.054.

The compound `CN(C)C(=O)c1cccc(-c2ccc3c(c2)[C@H]2[C@H](CCN2C(=O)Cc2ccccc2)[C@H](CO)N3)c1` had a viability index of 1.03 ± 0.03.

As to `O=C(C[C@H]1C=C[C@H](NC(=O)c2cnccn2)[C@@H](CO)O1)NCc1ccccc1F`, the viability index stood at 1.16 ± 0.056.

Turning to `C[C@@H]1CN([C@@H](C)CO)C(=O)c2cc(NS(=O)(=O)c3ccc(F)cc3)ccc2O[C@H]1CN(C)C(=O)Nc1ccccc1`, the viability index amounted to 1 ± 0.14.

`CN(C)C(=O)c1cccc(-c2ccc3c(c2)[C@@H]2[C@@H](CCN2C(=O)c2cnccn2)[C@H](CO)N3)c1` yielded a viability index of 1.17 ± 0.072.

In the case of `C[C@H](NC(=O)C[C@@H]1C=C[C@H](NC(=O)c2cccnc2)[C@H](CO)O1)c1ccccc1`, the viability index was 1.11 ± 0.077.

`CO[C@H]1CN(C)C(=O)c2cc(NC(=O)NC3CCCCC3)ccc2OC[C@@H](C)N(CC2CCOCC2)C[C@H]1C` yielded a viability index of 1.099 ± 0.0089.

For the compound `COc1cccc(-c2ccc([C@H]3[C@H]4CNCC(=O)N4[C@H]3CO)cc2)c1`, the viability index is 0.999 ± 0.084.

The compound `COc1ccc(S(=O)(=O)Nc2ccc3c(c2)C(=O)N([C@@H](C)CO)C[C@H](C)[C@@H](CN(C)S(=O)(=O)c2ccc(Cl)cc2)OCCCC[C@H](C)O3)cc1` gave a viability index of 0.944 ± 0.018.
